# Data: PubChem BioAssay AID624173 (National Center for Advancing Translational Sciences (NCATS), 2012)
# Among all 410,000 compounds or so, about 490 (0.12%) were called active. This list was built around the results that the source calls inconclusive (neither active nor inactive); the mix of calls is not that of the screen. Calls come from the whole dose curve; as a rule, active = well fitted inhibition curve with a large enough effect; inconclusive = small, poorly fitted or top-dose-only effect; inactive = flat fitted curve, though single readings scatter. A potency beside an inconclusive call is a rough fit, not a confirmed value.
# Molecular target: pyruvate kinase (Trypanosoma brucei) (UniProt Q57TT1)
# Assay: qHTS of Trypanosoma Brucei Inhibitors; note: nearly all actives have a fitted effect of over 50% in size
# Conditions: TbPYK enzyme, Kinase-Glo Plus ATP luminescence, 45 min; series mostly up to 76.8 µM
# Outline: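 Luminescent Kinase-Glo Plus end-point after 45 min room-temperature reaction of T. brucei pyruvate kinase started with 130 uM ADP (final). Buffer TEA 50 mM pH 7.2 with KCl, MgCl2, BSA, Tween-20; titration-based qHTS with fitted concentration-effect curves.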
# Potency is the fitted concentration of half-maximal effect; tags give direction and shape of the fitted curve.
row,Compound,Potency
1,COc1ccccc1/C=C/C=N/n1c(-c2ccccc2)n[nH]c1=S,"inconclusive: 2.24 µM [inhibitor, full curve, poor fit]"
2,O=C(Nc1cccc(NC(=O)c2ccccc2[N+](=O)[O-])n1)c1ccccc1[N+](=O)[O-],"inconclusive: 35.5 µM [inhibitor, single point]"
3,CC(=O)[C@@H]1[C@@H](C(=O)c2ccc(F)cc2)[C@]2(C(=O)Nc3ccccc32)[C@H]2C=Cc3cc(F)ccc3N12,"inconclusive: 25.1 µM [inhibitor, partial curve]"
4,COc1ccc(OC)c(-n2c(=S)[nH]c3c(sc(=S)n3-c3ccccc3C)c2=O)c1,"inconclusive: 17.8 µM [inhibitor, partial curve]"
5,CCc1cccc(NC(=O)CCc2c(C)nn(-c3ccc(N4CCOCC4)nn3)c2C)c1,inactive
6,COc1cc(/C=N/n2c(COc3ccccc3)n[nH]c2=S)cc(Br)c1O,"inconclusive: 1.12 µM [inhibitor, full curve]"
7,O=C(CN1CCN(S(=O)(=O)c2ccccc2)CC1)NCCc1ccccc1,"inconclusive: 44.7 µM [inhibitor, single point]"
8,CCOC1=C2[C@H](c3ccccc3Cl)N(S(=O)(=O)c3ccc(C)cc3)C[C@H]2C(C#N)(C#N)C(C#N)(C#N)C1,"inconclusive: 35.5 µM [inhibitor, partial curve, poor fit]"
9,Cc1ccc(OCc2nc(-c3ccccn3)no2)c(Br)c1,inactive
10,CC(=O)OCC1=C(C(=O)O)N2C(=O)C(NC(=O)c3ccc(COc4ccc(Cl)cc4)o3)C2SC1 (stereo unspecified),inactive
11,Cc1cc(-c2n[nH]c(=S)n2-c2ccc(C)c(C)c2)no1,"inconclusive: 4.47 µM [inhibitor, full curve, poor fit]"
12,Cc1ccccc1-n1c(-c2ccc3ccccc3n2)n[nH]c1=S,"inconclusive: 7.94 µM [inhibitor, partial curve]"
13,Cc1ccc(/C=C/C(=O)Nc2cccc3ncccc23)o1,"inconclusive: 35.5 µM [inhibitor, partial curve, poor fit]"
14,CCN(CCc1ccccc1)c1ccc2c(c1)C1CC2CCN1Cc1ccccc1 (stereo unspecified),"inconclusive: 28.2 µM [inhibitor, single point]"
15,CC(=O)NNC(=O)c1sc(=S)n2c1[nH]c(=O)c1sccc12,"inconclusive: 39.8 µM [inhibitor, single point]"
16,Cc1cc(C(=O)Nc2ccc(Br)cn2)sc1C,inactive
17,FC(F)C(F)(F)Oc1cccc(-c2n[nH]c(=S)n2Cc2ccccc2)c1,"inconclusive: 17.8 µM [inhibitor, partial curve]"
18,CCCC(=O)OCCNc1cc(SCc2ccco2)c2nonc2c1[N+](=O)[O-],"inconclusive: 11.2 µM [inhibitor, partial curve]"
19,CN1CCc2c(sc3c2c(=O)n(-c2ccccc2)c2nnc(SCc4ccccc4)n32)C1,active: 31.6 µM
20,CNC(=O)c1c(C)[nH]c(=S)c(C#N)c1-c1ccco1,active: 7.94 µM
21,CCOC(=O)c1c(-c2ccc(C)o2)csc1NC(=O)CSc1nnnn1-c1ccccc1,"inconclusive: 31.6 µM [inhibitor, partial curve, poor fit]"

row,Compound,Potency
1,O=C(NN1S(=O)(=O)c2ccccc2S1(=O)=O)c1ccc(Br)cc1,"inconclusive: 14.1 µM [inhibitor, partial curve, poor fit]"
2,CCOC(=O)C1Nc2ccc(OC(F)(F)F)cc2C2C=CCC12 (stereo unspecified),"inconclusive: 14.1 µM [inhibitor, partial curve]"
3,COC(=O)c1ccc(NC(=O)C(=O)c2cccn2C)cc1,"inconclusive: 22.4 µM [inhibitor, partial curve]"
4,Cc1cc(C)cc(OCC(=O)Nc2ccc(F)cc2)c1,"inconclusive: 31.6 µM [inhibitor, partial curve, poor fit]"
5,CCOP(=O)(C1=C(O)C(=O)C(C(C)(C)C)=CC1=O)c1ccccc1 (stereo unspecified),"inconclusive: 11.2 µM [inhibitor, partial curve, poor fit]"
6,Cc1nc2ccc(C(=O)N3CCSCC3)cc2s1,"inconclusive: 39.8 µM [inhibitor, single point]"
7,COc1cccc(CC(NC(C)=O)C(=O)NC2CCN(S(=O)(=O)c3ccc4ccccc4c3)CC2)c1 (stereo unspecified),"inconclusive: 31.6 µM [inhibitor, single point]"
8,COc1cc(C(=O)N2CCN(S(=O)(=O)c3cccc(F)c3)CC2)ccc1OCC(=O)N1CCOCC1,inactive
9,Cc1ccc(NC(=O)C2CCN(S(=O)(=O)c3ccc(C(C)(C)C)cc3)CC2)cc1S(=O)(=O)N1CCOCC1,inactive
10,Cc1ccc(/C=N/n2c(C)nnc2C)o1,"inconclusive: 31.6 µM [inhibitor, partial curve, poor fit]"
11,Cc1ccc(NC(=O)c2ccco2)cc1C,"inconclusive: 50.1 µM [inhibitor, partial curve, poor fit]"
12,O=C(COC(=O)Cc1c(Cl)cccc1Cl)NCc1ccccc1,inactive
13,Oc1c(Br)cc(Br)c(/C=N/n2c(-c3ccccc3)n[nH]c2=S)c1Br,"inconclusive: 39.8 µM [inhibitor, single point]"
14,NC(=O)c1c(NC(=O)CN2CCCC2)sc2c1CCCC2,"inconclusive: 50.1 µM [inhibitor, single point]"
15,CCOC(=O)N(C)c1c(CC)nc2c(OCc3ccc(Cl)cc3)cccn12,inactive
16,Cn1sc(=O)c2cc(S(=O)(=O)NC3CC3)ccc21,"inconclusive: 25.1 µM [inhibitor, partial curve]"
17,c1ccc(-c2nnc(-c3ccccc3)nn2)cc1,"inconclusive: 35.5 µM [inhibitor, partial curve, poor fit]"
18,C[C@H]1CN([C@@H](C)CO)C(=O)CCCn2nncc2CO[C@@H]1CN(C)C(=O)c1ccc2ccn(C)c2c1,inactive
19,Cc1ccc(C)c(OCc2cc(C(=O)N3CCN(C(=O)c4ccco4)CC3)no2)c1,inactive
20,CCn1c(-c2cc(Br)ccc2O)n[nH]c1=S,"inconclusive: 15.8 µM [inhibitor, partial curve, poor fit]"
